Laboratory results taken from PubChem BioAssay AID463173 (ICCB-Longwood Screening Facility, Harvard Medical School, 2010).
Out of some 52,000 compounds screened, about 4,300 (8.3%) were called active. Rule as the data show it: active = survival mostly below about 52% (no sharp cut-off); inactive = mostly above about 56%. The list shows a part of the results.

Tested on: DeltatarO mutant
Assay: growth inhibition of S. aureus wild type versus tarO mutant, primary screen, teichoic acid synthesis inhibitors, RN4220, OD600 (AID 463173)
Settings: OD600, 18 h, active compounds read low, screened at 18.75 µg/mL (by protocol)

| Compound | survival |
| --- | --- |
| CCOC(=O)C1CCN(c2cc(C)c(C#N)c3nc4ccccc4n23)CC1 | inactive: 100% |
| Cc1cc(=O)n2nc(N3CCC(C(=O)Nc4c(C)cccc4C)CC3)sc2n1 | inactive: 114% |
| Nc1c(C(=O)Nc2cccc(F)c2)nnn1-c1cccc(C(F)(F)F)c1 | inactive: 75% |
| CCOC(=O)C(Cc1ccccc1)N1C(=O)c2ccccc2C1=O (centres undefined) | inactive: 71% |
| CCc1cccc(NC(=O)Cn2c(=O)n(CCC(=O)NCc3ccccc3Cl)c(=O)c3sccc32)c1 | inactive: 76% |
| CCOc1nc(C)c(/C=C/C(=O)O)c(OCC)n1 | inactive: 76% |
| CCN(CC)c1ccc(NC(=O)CN2CCN(c3ccccc3OC)CC2)cc1 | inactive: 88% |
| Oc1c(C(c2ccccc2)N2CCOCC2)sc2nc(-c3ccco3)nn12 (centres undefined) | inactive: 69% |
| CCc1nc2nc(C)c(NS(=O)(=O)c3ccc(C(C)(C)C)cc3)c(=O)n2[nH]1 | inactive: 86% |
| CCOC(=O)c1sc2ncn(CC(=O)Nc3ccc(OCC)cc3)c(=O)c2c1C | inactive: 59% |
| COc1ccc(-c2nc(C)c(CCNS(=O)(=O)c3cc(Cl)ccc3Cl)s2)cc1 | inactive: 66% |
| CCc1ccc(S(=O)(=O)Nc2cc3c(C(=O)OCc4ccccc4)c(C)oc3c3ccccc23)cc1 | inactive: 60% |
| Cc1c(C(=O)Nc2cccc(C(F)(F)F)c2)oc2ccc3c(c12)C(=O)CC(C)(C)O3 | inactive: 84% |
| CCc1nn2c(=O)cc(COC(=O)COc3ccc(OC)cc3)nc2s1 | inactive: 84% |
| COC(=O)CN1C(=O)CSc2ccc(S(=O)(=O)Nc3cc(C)ccc3C)cc21 | active: 25% |
| CCC(=O)N1c2ccccc2CC1C(=O)NCCc1ccc(OC)c(OC)c1 (centres undefined) | inactive: 99% |
| Cc1cc(C)c(NC(=O)c2sc3nc(C)cc(C)c3c2NC(=O)c2ccccc2)c(C)c1 | inactive: 62% |
| CCOC(=O)c1c(C)[nH]c(C)c1S(=O)(=O)N1CCC(C(=O)Nc2cc(Cl)ccc2OC)CC1 | inactive: 70% |
| CC1=C(c2ccc(C)c(C)c2)S(=O)(=O)NC1=NCc1ccccc1Cl | inactive: 81% |
| O=C(NC1CCCCC1)C(c1ccc(O)c(O)c1)N(C(=O)Cn1nnc2ccccc21)C1CCCCC1 (centres undefined) | inactive: 99% |
| CCOc1ccc(CCNC(=O)c2cn(C)c3ccc(S(=O)(=O)N4CCCCC4)cc3c2=O)cc1OCC | inactive: 101% |
| COc1ccccc1C(=O)Nc1cccc(C(=O)OCc2cc(=O)n3cc(C)sc3n2)c1 | inactive: 94% |
| Cc1cc(OCC(=O)Nc2ncn[nH]2)ccc1Cl | inactive: 64% |

| Compound | survival |
| --- | --- |
| Cc1ccc(S(=O)(=O)N(CC(=O)Nc2ccc3c(c2)OCO3)c2cc(Cl)cc(Cl)c2)cc1 | inactive: 140% |
| CCOC(=O)Nc1ccc2c(c1)N(CCCN(C)C)c1ccccc1CC2 | inactive: 73% |
| CCN(CC)S(=O)(=O)c1ccc(OC)c(-n2cnnn2)c1 | inactive: 65% |
| O=C(NCCC1=CCCCC1)c1ccc2c(c1)N(Cc1cccc(Cl)c1)C(=O)c1ccccc1S2=O (centres undefined) | active: 37% |
| CC(C)CCNC(=O)Cc1ccc(NC(=O)N2CCCCc3ccccc32)cc1 | inactive: 78% |
| COc1ccc(CNC(=O)Cn2c(=O)nc(-c3ccccc3)c3ccccc32)cc1OC | inactive: 89% |
| CCCCC(=O)NC1CC(=O)N(c2ccc3c(c2)OCCO3)C1 (centres undefined) | inactive: 129% |
| Cc1c(NC(=O)c2ccc(-c3cccc([N+](=O)[O-])c3)o2)cccc1-c1nc2cc(Cl)ccc2o1 | inactive: 52% |
| Cn1c(=O)oc2cc(S(=O)(=O)NCCC(=O)Nc3ccc(F)cc3F)ccc21 | inactive: 88% |
| CC(=O)c1ccc(N2CCN(C(=O)C3CCCN(S(=O)(=O)c4ccc(Br)s4)C3)CC2)cc1 (centres undefined) | inactive: 76% |
| COc1cc(CCC(=O)NCc2ccc3c(c2)CCN3C(=O)c2ccccc2)cc(OC)c1OC | inactive: 109% |
| CCC1CN(S(=O)(=O)c2cc(-c3cc(C)no3)ccc2C)c2cc(C)ccc2O1 (centres undefined) | active: 52% |
| Cc1nc2c(-c3ccc(F)cc3)c(C)nn2c(C)c1CCC(=O)N1CCN(c2ccccc2)CC1 | inactive: 67% |
| COC(=O)c1cc2oc3ccccc3c2n1Cc1nc(-c2ccc(Cl)cc2)oc1C | inactive: 91% |
| O=C(O)CCSc1nc(-c2ccccc2)cc(=O)[nH]1 | inactive: 107% |
| CCCCn1c(SCC(=O)c2ccccc2)nc2c(sc3ccccc32)c1=O | active: 17% |
| CCc1ccc(CNC(=O)c2nn(-c3ccc(C)cc3)c(=O)c3c2c2ccccc2n3C)cc1 | inactive: 145% |
| O=C(C(F)F)N(Cc1ccccc1)Cc1ccccc1 | inactive: 75% |
| CC(=O)OC1OCCOC1OC(C)=O (centres undefined) | inactive: 85% |
| CC(C)CC(NS(=O)(=O)c1ccccc1)C(=O)O (centres undefined) | inactive: 77% |
| O=C(CN1C(=O)C(c2ccc(F)cc2)=NC12CCCCCC2)Nc1ccccc1Cl | inactive: 84% |
| Cc1cc(C)c(NC(=O)Cn2nc(-c3ccncc3)ccc2=O)c(C)c1 | inactive: 86% |
| CCCn1c(=O)n(-c2ccccc2Cl)c(=O)c2sc3ccccc3c21 | inactive: 95% |

| Compound | survival |
| --- | --- |
| CC1=Nc2cc(C(=O)NCc3ccccc3Cl)ccc2Sc2c(C)ccc(C)c21 | inactive: 79% |
| COc1ccc(-c2ccc3c(N)c(C(=O)Nc4ccc(C(F)(F)F)cc4)sc3n2)cc1OC | inactive: 97% |
| COc1ccc(-c2nnc(SCC(=O)NCCc3ccc(OC)c(OC)c3)nc2-c2ccc(OC)cc2)cc1 | inactive: 86% |
| Cc1nc2cccnc2n1-c1cccc(C(=O)N2CCN(c3cccc(Cl)c3)CC2)c1 | inactive: 73% |
| Cc1ccc(C)c(N2CCN(S(=O)(=O)c3cc(-c4cc(C)no4)ccc3C)CC2)c1 | inactive: 83% |
| Cc1ccc(-c2nnc(Nc3cccc(Cl)c3)c3ccccc23)cc1S(=O)(=O)N1CCCCC1 | inactive: 65% |
| Cc1ccc(-n2nc(CO)c(C(=O)NCCCCc3ccccc3)n2)cc1C | inactive: 113% |
| CSc1ccc(CCNC(=O)c2cc(C)nc3c2c(C)nn3-c2ccccc2)cc1 | inactive: 122% |
| COc1ccccc1C(=O)NCCn1cc(SCC(=O)Nc2ccccc2F)c2ccccc21 | inactive: 55% |
| COc1ccc(CCNC(=O)C(=O)Nc2ccccc2F)cc1 | inactive: 67% |
| Cc1ccc(CNC(=O)C(=O)Nc2c3c(nn2-c2ccccc2)CSC3)cc1 | inactive: 71% |
| C=CCN(CC=C)C(=O)c1ccc(SC)cc1OC | inactive: 98% |
| CCOC(=O)c1[nH]c(C)c(CCC(=O)N2CCN(c3cccc(OC)c3)CC2)c1C | inactive: 96% |
| CCCCN(CC)C(=O)CSc1nc2n[nH]c(C)c2c(=N)n1-c1cccc(Cl)c1 | active: 17% |
| CC1CN(C(=O)c2cc3n(n2)C(C(F)(F)F)CC(c2ccco2)N3)CC(C)O1 (centres undefined) | inactive: 83% |
| Cc1ccc(-c2noc(-c3ccccc3NC(=O)c3ccccc3)n2)cc1 | inactive: 69% |
| CCC(=O)N1CCc2cc(Br)cc(S(=O)(=O)CCC(=O)NCc3ccccc3OC)c21 | inactive: 66% |
| Cc1ccc(NC(=O)Cc2ccc(-n3c(C)nc4cccnc43)cc2)c(Cl)c1 | inactive: 107% |
| CCOc1ccc(NC(=O)Cn2ncc3c2-c2cc(C)ccc2OC3)cc1 | inactive: 73% |
| CCc1ccc(NC(=O)N2CCOc3ccc(Cl)cc32)cc1 | inactive: 65% |
| COC(=O)c1ccc(NC(=O)CC2C(=O)N(c3cccc(OC)c3)C(=O)N2Cc2cccs2)cc1 (centres undefined) | inactive: 91% |
| Cc1ccc(-c2nc(NC(=O)CSc3cc(C)c4ccccc4n3)ns2)cc1 | inactive: 65% |
| Cc1cc(C)c(NC(=O)c2cc(S(=O)(=O)N3CCC4(CC3)OCCO4)ccc2F)c(C)c1 | inactive: 77% |

| Compound | survival |
| --- | --- |
| O=C(NCc1ccccc1)c1ccc(CNS(=O)(=O)c2ccc(Br)cc2)cc1 | inactive: 80% |
| COc1ccccc1CNS(=O)(=O)c1ccc2c(c1)CC(C)N2C(C)=O (centres undefined) | inactive: 71% |
| O=C(Cc1cccs1)NCCCc1ccccc1 | inactive: 106% |
| CC1CCN(S(=O)(=O)c2ccc3c(c2)N(CC(=O)NC(C)c2ccccc2)C(=O)CS3)CC1 (centres undefined) | inactive: 74% |
| CC(C)Cn1cc(NC(=O)N2CCN(c3cccc(Cl)c3)CC2)c2ccccc2c1=O | inactive: 85% |
| CCc1cccc(C)c1NS(=O)(=O)c1c(C(=O)N2CCC(C)CC2)c(C)n(C)c1C | inactive: 81% |
| Cc1cc(Cl)ccc1OCC(=O)N=Nc1c(O)[nH]c(=O)[nH]c1=O | inactive: 88% |
| CCS(=O)(=O)n1nc(-c2ccco2)nc1N | inactive: 108% |
| CCN(CCCNC(=O)Cn1ncc2c3ccccc3n(C)c2c1=O)Cc1ccccc1 | inactive: 92% |
| CCCSc1ncc(Cl)c(C(=O)Nc2ccc(S(=O)(=O)N(C)c3ccccc3)cc2)n1 | inactive: 54% |
| COC(=O)c1ccc(C2c3c(-c4ccccc4O)n[nH]c3C(=O)N2Cc2cccnc2)cc1 (centres undefined) | inactive: 72% |
| COc1ccc(Cn2c(C(=O)O)c(CNCc3ccccc3F)c3ccc(OC)cc32)cc1 | inactive: 70% |
| CC1CCCN(C(=O)CSc2c3c(nc4cc(Cl)ccc24)CCCC3)C1 (centres undefined) | active: -5% |
| O=C(Nc1cc(-c2nc3cc(Cl)ccc3o2)ccc1Cl)c1ccco1 | active: 41% |
| COc1cccc(C2C(C(=O)Nc3ccc(C)cc3C)=C(C)Nc3c(C(=O)Nc4ccccc4)cnn32)c1 (centres undefined) | inactive: 88% |
| O=C(Nc1nnc(S(=O)(=O)N2CCCc3ccccc32)s1)c1cccc(Cl)c1 | active: 3% |
| CCc1ccc(NC(=O)CSc2nc(=O)n(Cc3ccccn3)c3c2CCC3)cc1 | inactive: 95% |
| Clc1cccc(-c2ccc(CNCCSc3nnnn3-c3ccccc3)o2)c1 | active: 30% |
| O=C(c1ccccc1)N1CCN(CCc2ccncc2)CC1 | inactive: 90% |
| Cc1ccc2cc(C#N)c(SCC(=O)Nc3ccccc3)nc2c1 | inactive: 66% |
